# Reference: paper PMC4336329 (PLoS ONE, 2015)
# The whole screen tested about 310,000 compounds, of which about 2,200 (0.71%) showed an effect of 50% or more. The effect is printed as a negative number. This is one part of the list.
# Molecular target: human ether-à-go-go-related gene (hERG) potassium channel (human, UniProt Q12809)
# Assay: primary screen, population patch clamp on CHO cells stably expressing hERG
# Chain of human ether-à-go-go-related gene (hERG) potassium channel (Q12809 whole entry, looked up): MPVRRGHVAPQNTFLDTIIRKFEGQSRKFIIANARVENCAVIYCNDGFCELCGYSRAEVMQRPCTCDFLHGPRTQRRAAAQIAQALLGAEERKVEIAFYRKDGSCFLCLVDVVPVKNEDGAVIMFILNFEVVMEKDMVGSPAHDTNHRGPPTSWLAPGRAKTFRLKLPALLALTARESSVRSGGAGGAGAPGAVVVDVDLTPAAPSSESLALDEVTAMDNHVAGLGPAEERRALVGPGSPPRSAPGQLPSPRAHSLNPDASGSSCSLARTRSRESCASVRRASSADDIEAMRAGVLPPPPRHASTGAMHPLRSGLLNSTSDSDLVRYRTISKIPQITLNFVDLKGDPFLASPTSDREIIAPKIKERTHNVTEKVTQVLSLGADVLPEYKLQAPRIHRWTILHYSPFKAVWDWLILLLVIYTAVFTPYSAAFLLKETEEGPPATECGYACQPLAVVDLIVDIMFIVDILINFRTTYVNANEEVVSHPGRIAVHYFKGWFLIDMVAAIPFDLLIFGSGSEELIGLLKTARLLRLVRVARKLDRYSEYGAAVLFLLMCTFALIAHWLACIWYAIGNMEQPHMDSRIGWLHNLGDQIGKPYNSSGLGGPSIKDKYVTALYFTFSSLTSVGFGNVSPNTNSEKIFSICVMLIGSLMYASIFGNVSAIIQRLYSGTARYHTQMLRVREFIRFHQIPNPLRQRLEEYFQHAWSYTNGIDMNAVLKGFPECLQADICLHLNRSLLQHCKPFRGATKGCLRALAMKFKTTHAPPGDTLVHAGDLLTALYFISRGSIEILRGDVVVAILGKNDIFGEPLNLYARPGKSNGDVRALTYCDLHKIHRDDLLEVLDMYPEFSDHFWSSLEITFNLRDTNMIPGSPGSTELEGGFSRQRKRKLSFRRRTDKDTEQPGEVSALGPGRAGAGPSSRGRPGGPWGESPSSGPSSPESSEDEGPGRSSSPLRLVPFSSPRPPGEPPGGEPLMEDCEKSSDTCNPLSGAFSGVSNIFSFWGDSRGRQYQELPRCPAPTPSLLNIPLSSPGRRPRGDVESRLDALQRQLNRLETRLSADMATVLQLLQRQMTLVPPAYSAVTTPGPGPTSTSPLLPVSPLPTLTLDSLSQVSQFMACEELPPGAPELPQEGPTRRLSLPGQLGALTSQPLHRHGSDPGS
row,SMILES,"hERG current change (%, negative = inhibition) at 1uM [%]"
1,NC(=O)c1nc[nH]c1C(=O)Nc1cccc(C(F)(F)F)c1,9.75
2,CC(C)CC(=O)N1CCN(C(=O)c2ccc(F)cc2)CC1,17.4
3,CCOc1ccccc1NC(=S)N1CCC(c2nc3ccccc3o2)CC1,10.3
4,Cc1c(Cc2ccccc2)sc(/N=C/c2c(O)ccc3ccccc23)c1C(N)=O,-0.0249
5,O=C(c1cccc(Cl)c1)N1CCN(S(=O)(=O)c2ccc(Cl)s2)CC1,8.22
6,COc1ccc(C)cc1NC(=O)CSc1nnc(CC(=O)Nc2ccccc2F)n1C,11.8
7,Cc1ccc(-c2nn(-c3cccc(F)c3)cc2CN2CCN(c3ccccn3)CC2)o1,-0.655
8,Cc1ncsc1C(=O)Nc1nc2c(s1)CC(C)CC2 (centres unmarked),12
9,Cn1c(O)c(C=NCc2cccs2)c(=O)n(C)c1=O,6.26
10,CCC(Oc1ccccc1C)C(=O)N1CCCN(C)CC1 (centres unmarked),14
11,Cc1ccc(-c2noc(CN(C(=O)CCCN3C(=O)c4ccccc4C3=O)C(C)C)n2)cc1,-6.27
12,CC(=O)N1c2ccc(S(=O)(=O)NCC3CCC(C(=O)NCc4ccc(C)o4)CC3)cc2CC1C (centres unmarked),14.6
13,O=C(C1=NN[C@@H]2C(=O)N(c3cccc(C(F)(F)F)c3)C(=O)[C@H]12)c1cnccn1,11.6
14,COCCNC(=S)N1CCN(C)CC1.O=C(O)C(=O)O,8.6
15,CCOC(=O)CNC(=O)c1ccc(OCC(F)(F)F)cc1,6.16
16,CCn1ccnc1CN1CCN(CC(C)C)C(CCO)C1 (centres unmarked),3.47
17,CC(C)(C)C(=O)CSc1ncnc2c1cnn2Cc1ccccc1,12.1
18,CC1CCCCN1S(=O)(=O)c1ccc(-n2cnnn2)cc1 (centres unmarked),-10.3
19,CC1(C)CC(C2N3CC4(C)CN2CC(C)(C3)C4=O)CCO1 (centres unmarked),5.02
20,O=C(N/C(=C/c1cccc([N+](=O)[O-])c1)C(=O)N1CCCCCC1)c1ccco1,7.99

row,SMILES,"hERG current change (%, negative = inhibition) at 1uM [%]"
1,COc1ccc(C2CC(=O)C=C(NNS(=O)(=O)c3ccc(C)cc3)C2)cc1 (centres unmarked),5.25
2,CCCCc1ccc(S(=O)(=O)Nc2nnc(C)s2)cc1,21.9
3,CC(=O)c1cccc(NC(=O)CN(C)Cc2ccc(OC(F)F)cc2)c1,-2.11
4,N#CCOc1ccccc1/C=N/n1nnnc1N,17.1
5,CCOC(=O)c1nnn(CC(=O)Nc2cc(Cl)ccc2C)c1C(=O)OCC,16.4
6,O=C(Nc1cccc([N+](=O)[O-])c1)C1C2CC/C=C\CCC21 (centres unmarked),12.4
7,CC1CCCCN1CCNC(=O)c1ccc2c(c1)N(Cc1cccc(Cl)c1)C(=O)c1ccccc1S2=O (centres unmarked),7
8,COC(=O)Cn1c(C)nc([N+](=O)[O-])c1Br,5.63
9,CN(C1CCCCC1)S(=O)(=O)c1cccc2nsnc12,11.9
10,Cc1[nH]n(-c2ccccc2)c(=O)c1Sc1ccc(Cl)cc1,7.11
11,O=C(/C=C/c1cccc([N+](=O)[O-])c1)NCCSc1ccccc1,4.19
12,O=C(C1CCCO1)N1CCN(Cc2nc3ccccc3c(=O)[nH]2)CC1 (centres unmarked),11.1
13,COCCNC(=O)c1ccc(NS(C)(=O)=O)cc1,10.2
14,O=C(N/N=C/c1cc(Cl)ccc1O)c1ccccc1Br,14.5
15,Cc1ccn2cc(-c3cccc(NC(=O)CCC(=O)O)c3)nc2c1,17.5
16,Cc1onc(-c2ccccc2Cl)c1C(=O)N1CCCC1,12
17,COc1ccc(NC(=O)c2cc(C)no2)cc1,18.9
18,COc1cc(NC(=O)CSc2ccc(-c3ccccn3)nn2)cc(OC)c1,15.4
19,CC(=O)c1sc(-c2ccccc2)nc1C,-1.3
20,N#CCC(=N)N1CCN(c2ccc(F)cc2)CC1,4.63

row,SMILES,"hERG current change (%, negative = inhibition) at 1uM [%]"
1,COc1ccc(C(=O)N2CCN(CCc3ccccn3)CC2)cc1.Cl,-66.6
2,COc1ccc(CCNC(=O)c2nc3ncccn3n2)cc1OC,17.9
3,COc1cc(COc2ccc3c(C)c(CC(=O)O)c(=O)oc3c2C)cc(OC)c1OC,9.85
4,CC(=O)c1ccc(-n2ccc(=O)cc2)cc1,16.1
5,O=C(NCCCO)c1nnc(Cc2c(F)cccc2Cl)o1,9.61
6,CCOC(=O)CC(=O)CSc1nc2c(c(-c3cccs3)c1C#N)CCC2,-3.94
7,Cc1ccc2nsnc2c1NC(=O)c1sc2ccccc2c1Cl,12.6
8,Cc1cc(OCC(=O)NC(C)c2ccccc2)ccc1[N+](=O)[O-] (centres unmarked),-0.258
9,CC(C)c1nc(CNC(=O)C2CCC(=O)N(Cc3ccc(Cl)cc3)C2)no1 (centres unmarked),13.3
10,CC(C)OC(=O)CSc1nnc(-c2ccco2)n1N,1.32
11,CCc1nn(C(CC)C(=O)NCc2cccc(OC)c2OC)c(=O)c2cc3occc3n12 (centres unmarked),7.7
12,Cl.Clc1cccc(N2CCNCC2)c1,9.51
13,CN(C)S(=O)(=O)c1cccc(CSCc2cccc(S(=O)(=O)N(C)C)c2)c1,16.7
14,Cc1ccc(-c2noc(=O)n2CC(=O)c2ccc(Cl)cc2)cc1,12.9
15,O=C(Cc1ccccc1)OCc1ccccc1,14.8
16,CC(C)(C)C(=O)N/C(N)=N/c1nc2ccccc2o1,12.6
17,CSc1ccc(NC(=O)NCCCN2CCN(c3ccccc3F)CC2)cc1,-12.8
18,COc1ccc(Cl)cc1NC(=O)CN(C)CC(=O)Nc1ccccc1N1CCOCC1.O=C(O)C(=O)O,12.4
19,COc1cccc(-c2cc(C(=O)N3CCN(Cc4ccc5c(c4)OCO5)CC3)on2)c1,0.447
